According to PubChem BioAssay AID1476 (National Center for Advancing Translational Sciences (NCATS), 2009):
Among all 200,000 compounds or so, about 4,500 (2.2%) were called active. Inconclusive means that the source gave no clear call. Such entries were picked first, then a sample of the others. Calls come from the whole dose curve; as a rule, active = well fitted inhibition curve with a large enough effect; inconclusive = small, poorly fitted or top-dose-only effect, or effect the other way; inactive = flat fitted curve, though single readings scatter. Potencies of inconclusive entries are doubtful fits and often do not repeat.
Note: nearly all actives have a fitted effect of over 40% in size.
Potency is the fitted concentration of half-maximal effect; tags give direction and shape of the fitted curve.
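Throughout, for max response, negative = inhibition: plate controls were enzyme without inhibitor for no effect and buffer without enzyme for full effect.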

The compounds below were run against Cruzipain (Trypanosoma cruzi) (UniProt P25779) (assay: qHTS Assay for Promiscuous and Specific Inhibitors of Cruzain (without detergent)). Details: purified cruzain, Z-FR-AMC fluorescence, no detergent.
Chain of UniProt P25779 (P25779 whole entry, looked up): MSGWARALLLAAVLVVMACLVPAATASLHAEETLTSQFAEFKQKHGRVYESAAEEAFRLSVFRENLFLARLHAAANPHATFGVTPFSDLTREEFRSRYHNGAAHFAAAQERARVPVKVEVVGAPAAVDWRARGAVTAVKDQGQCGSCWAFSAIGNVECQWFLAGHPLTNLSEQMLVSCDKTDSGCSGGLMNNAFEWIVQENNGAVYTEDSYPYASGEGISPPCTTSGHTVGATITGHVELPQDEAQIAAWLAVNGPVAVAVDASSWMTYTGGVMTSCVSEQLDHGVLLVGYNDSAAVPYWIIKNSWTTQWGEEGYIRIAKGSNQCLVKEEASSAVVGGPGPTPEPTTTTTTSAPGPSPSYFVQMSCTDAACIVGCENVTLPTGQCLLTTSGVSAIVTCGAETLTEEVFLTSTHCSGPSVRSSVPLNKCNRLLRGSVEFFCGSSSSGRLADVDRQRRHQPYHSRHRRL
Procedure, shortened: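 Purified cruzain at 1.5 nM, pre-incubated 15 min with compound at room temperature in 100 mM sodium acetate pH 5.5, 5 mM DTT, 0.00005% Triton X-100. Reaction started with 2 uM Z-FR-AMC; AMC fluorescence increase over 60 s gives rate.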
For O=C(Nc1ccc(Cl)c(-c2nc3ccccc3[nH]2)c1)c1ccc2c(c1)OCO2, the Potency was inconclusive: 39.8 µM [inhibitor, single point].
For COc1ccc(C2/C(=C(/O)c3ccc(OC(C)C)cc3)C(=O)C(=O)N2CCCN2CCOCC2)cc1 (configuration not stated), the Potency was inconclusive: 39.8 µM [activator, single point].
In the case of CCCCOc1ccc(CNC(=O)Cc2ccc(NC(=O)N3CCSc4ncccc43)cc2)cc1, the max response, negative = inhibition is reported as inactive: 4.12%.
COC(=O)Nc1nc2ccc(Sc3ccccc3)cc2[nH]1 was tested, and the Potency was inconclusive: 39.8 µM [inhibitor, single point].
For COc1ccc(CNC(=O)CSc2ncc(S(=O)(=O)c3ccc(Br)cc3)c(=O)[nH]2)cc1, the Potency was inconclusive: 25.1 µM [activator, single point].
For O=S(=O)(NCc1csc(-c2cccnc2)n1)c1cccs1, the Potency was inconclusive: 20 µM [inhibitor, single point].
With COc1ccc(-c2[nH]c3ccccc3c2SCCNC(=O)c2ccc(S(=O)(=O)N(C)C)cc2)cc1 the Potency was inconclusive: 39.8 µM [inhibitor, single point].
In the case of COc1ccccc1NC(=O)c1cnc(Nc2ccccc2OC)c2ccccc12, the Potency is reported as inconclusive: 31.6 µM [inhibitor, single point].
With COc1ccccc1/C=C(\NC(=O)c1ccc(OC)c(OC)c1)C(=O)Nc1ccc([N+](=O)[O-])cc1 the max response, negative = inhibition was inactive: 5.75%.
In the case of CO[C@H]1/C=C/O[C@@]2(C)Oc3c(C)c(O)c4c(O)c(c5c(c4c3C2=O)NC2(CCN(CC(C)C)CC2)N=5)=NC(=O)/C(C)=C\C=C\[C@H](C)[C@H](O)[C@@H](C)[C@@H](O)[C@@H](C)[C@H](OC(C)=O)[C@@H]1C, the Potency is reported as inconclusive: 39.8 µM [activator, partial curve].
With CCOC(=O)C1CCCN(S(=O)(=O)c2ccc3[nH]c(=O)oc3c2)C1 (configuration not stated) the max response, negative = inhibition was inactive: 9.05%.
In the case of COc1ccc2c(c1)C=C(C(=O)NCc1cc(Br)ccc1OC)CO2, the Potency is reported as inconclusive: 39.8 µM [inhibitor, single point].
CC1Cc2ccccc2N1C(=O)CSc1nnc(-c2ccc(S(=O)(=O)N3CCOCC3)cc2)n1C (configuration not stated) was tested, and the Potency was inconclusive: 39.8 µM [activator, single point].
With Cc1cccc(C(=O)Nc2ccc3oc(-c4ccncc4)nc3c2)c1 the Potency was inconclusive: 39.8 µM [inhibitor, single point].
In the case of CCOc1ccc(C(=O)OCc2cc(=O)n3cc(C)sc3n2)cc1, the max response, negative = inhibition is reported as inactive: 1.03%.
In the case of COc1cccc(N2CCN(Cc3nc4scc(-c5ccccc5)c4c(=O)[nH]3)CC2)c1, the Potency is reported as inconclusive: 39.8 µM [inhibitor, single point].
In the case of Cc1cc(C)c2c(n1)nn1c(NCCOCCO)cc(C)nc21, the Potency is reported as inconclusive: 25.1 µM [activator, partial curve].
COC(=O)c1ccc(NC(c2ccc(Cl)cc2)P(=O)(OC)OC)cc1 (configuration not stated) was tested, and the Potency was inconclusive: 39.8 µM [activator, single point].
For COc1ccc(NC(=O)N2CCC3(CC2)CCN(S(C)(=O)=O)CC3)cc1, the max response, negative = inhibition was inactive: 0.653%.
COCCCn1c(SCc2nnc(-c3ccc(OC)c(OC)c3)o2)nc2ccccc2c1=O was tested, and the Potency was inconclusive: 39.8 µM [activator, single point].
With CC1=C(C(=O)OC(C)C)C(C)C(C(=O)OC(C)C)=C(C)N1 the Potency was inconclusive: 31.6 µM [activator, single point].
With CCOc1cc(/C=N/NC(=O)OC)ccc1OCCSc1ccc(Cl)cc1 the Potency was inconclusive: 39.8 µM [activator, single point].
With COc1ccc(CNC(=O)c2cnn(-c3ccc(C)cc3)c2-n2cccc2)cc1OC the Potency was inconclusive: 39.8 µM [activator, single point].
COc1cccc(CNc2nccn(-c3ccc(OC)c(OC)c3)c2=O)c1 was tested, and the max response, negative = inhibition was inactive: 4.88%.
O=c1[nH]cnc2c1N1CCC2CC1 was tested, and the Potency was inconclusive: 0.0398 µM [inhibitor, full curve, poor fit].
In the case of CCN(CC)c1nc(N2CCOCC2)c(C#N)c2c1CN(C)CC2, the max response, negative = inhibition is reported as inactive: 1.69%.
For CCOC(=O)CN(Cc1ccc(OC)c(OC)c1)S(=O)(=O)c1ccc(OC)cc1, the Potency was inconclusive: 31.6 µM [activator, single point].
For CC1=NC(Nc2nc(C)c3ccccc3n2)=NC(C)(C)C1, the Potency was active: 15.8 µM.
In the case of O=C(Nc1ccc(CN2CCOCC2)cc1)c1ccc(-c2ccc(Br)cc2)o1, the Potency is reported as inconclusive: 25.1 µM [inhibitor, single point].
Cc1ccc(S(=O)(=O)Oc2ccc(/C=N/NC(=O)c3nn(C)cc3[N+](=O)[O-])cc2)cc1 was tested, and the Potency was inconclusive: 39.8 µM [activator, single point].
With CCOc1ccc(CNC(=O)C2CCN(S(=O)(=O)c3cn(C)cn3)CC2)cc1OC the max response, negative = inhibition was inactive: 2.71%.
COCCNC(=S)NCCCNc1nc2cc3c(cc2cc1C#N)OCO3 was tested, and the Potency was inconclusive: 39.8 µM [inhibitor, single point].
For COc1cccc(CN2C(=O)CN(C3CCCCC3)C(=O)C2c2ccc(OC)c(OC)c2)c1 (configuration not stated), the max response, negative = inhibition was inactive: -12%.
Cc1cccc(NC(=O)c2cc3n(n2)C(C(F)(F)F)CC(c2ccc4c(c2)OCO4)N3)c1 (configuration not stated) was tested, and the Potency was inconclusive: 3.16 µM [inhibitor, single point].
In the case of COc1ccc2cc(CN(Cc3ccco3)Cc3nnnn3C3CCCCC3)c(=O)[nH]c2c1, the Potency is reported as inconclusive: 39.8 µM [activator, single point].
For Cc1ccc(S(=O)(=O)N2CCCc3cc(NS(=O)(=O)c4cccc(Cl)c4)ccc32)cc1, the Potency was active: 25.1 µM.
In the case of CC(C)/C(O)=C1/C(=O)OC(c2ccoc2)[C@@]2(C)C(O)C(O)[C@@]34OC5(C)OC67CC(C)(C(O)[C@@]6(O)C(O)[C@@]3(O5)C12)C(CC(=O)O)[C@@]74C (some centres not stated), the Potency is reported as inconclusive: 39.8 µM [activator, single point].
CCCCN1C(=O)c2[nH]nc(-c3ccccc3O)c2C1c1ccc(OCc2ccccc2)cc1 (configuration not stated) was tested, and the Potency was inconclusive: 5.01 µM [inhibitor, partial curve, poor fit].
In the case of Cc1c(NC(=O)c2c(N)n(-c3ccccc3)c3nc4ccccc4nc23)c(=O)n(-c2ccccc2)n1C, the Potency is reported as inconclusive: 10 µM [activator, partial curve].
For CCOC(=O)N1CCN(c2cc(NCCC(=O)O)c3c4c(onc24)-c2ccccc2C3=O)CC1, the Potency was inconclusive: 39.8 µM [activator, single point].
With O=C(CN1C(=O)C2CCCN2c2ncc(Cl)cc21)NCc1ccc2c(c1)OCO2 (configuration not stated) the Potency was active: 25.1 µM.
O=C1/C(=C\c2ccc(-c3ccccc3Cl)o2)SC(=S)N1CC1CCCO1 (configuration not stated) was tested, and the Potency was active: 15.8 µM.
With CCOc1ccccc1C(=O)N(Cc1cc(OC)c(OC)c(OC)c1)c1ccccn1 the max response, negative = inhibition was inactive: 0.687%.
In the case of CCC(C(=O)NC1CCCC1)N(Cc1cccs1)C(=O)Cn1nnc(-c2ccc(OC)c(OC)c2)n1 (configuration not stated), the Potency is reported as inconclusive: 31.6 µM [activator, single point].
O=C(CP(=O)(c1ccccc1)c1ccccc1)N/N=C/c1cc(Br)cc(Br)c1O was tested, and the Potency was inconclusive: 20 µM [inhibitor, single point].
For Cc1cc(C)c(S(=O)(=O)Nc2ccc(-c3cn4ccccc4n3)cc2)c(C)c1, the Potency was inconclusive: 39.8 µM [inhibitor, single point].
With COc1ccc(N2CCN(Cc3cc(=O)oc4ccc(Cl)cc34)CC2)cc1 the Potency was inconclusive: 39.8 µM [inhibitor, single point].
For O=C(CSc1nnc(-c2ccc(Br)cc2)o1)Nc1cccc2ccccc12, the Potency was inconclusive: 39.8 µM [inhibitor, single point].
With Cc1[nH]n(-c2ncc(-c3ccc(Cl)cc3)s2)c(=O)c1C(c1ccc(Cl)cc1)C(C#N)C#N (configuration not stated) the Potency was active: 3.16 µM.
In the case of c1ccc(-c2ccc(C3=Nn4c(nnc4-c4cc(-c5ccccc5)n[nH]4)SC3)cc2)cc1, the Potency is reported as active: 3.16 µM.
In the case of CCc1ccc(-c2cn3c(n2)sc2cc(C(=O)NCCC4=CCCCC4)ccc23)cc1, the max response, negative = inhibition is reported as inactive: 2.73%.
In the case of Cc1cccc2sc(NC(=O)CSc3nc4ccccc4o3)nc12, the Potency is reported as inconclusive: 39.8 µM [inhibitor, single point].
For Cc1ccc(CC(=O)Nc2ccc3c(c2)N(C)C(=O)c2ccccc2S3)cc1, the max response, negative = inhibition was inactive: 12%.
With COc1cc(/C=N/NC(=O)C2c3ccccc3Oc3ccccc32)ccc1O the Potency was inconclusive: 25.1 µM [inhibitor, single point].
COc1cccc(C(=O)N2c3ccc(C)cc3C(C)(c3ccccc3)CC2(C)C)c1 (configuration not stated) was tested, and the Potency was inconclusive: 39.8 µM [inhibitor, single point].
In the case of Cc1ccsc1C(=O)OCC(=O)Nc1sccc1C(N)=O, the max response, negative = inhibition is reported as inactive: -18.3%.
In the case of COc1c(CC(=O)c2cc3c(cc2O)OC(C)(C)C(O)C3)ccc2c1C=CC(C)(C)O2 (configuration not stated), the Potency is reported as inconclusive: 39.8 µM [activator, single point].
For CCOCCCNC(=O)c1cc(Sc2cccc(Cl)c2)nc2ccccc12, the Potency was inconclusive: 39.8 µM [activator, single point].
Cc1ccc(Nc2sc(C(=O)c3ccccc3)c(N)c2C(=O)Nc2ccc(Cl)cc2)cc1 was tested, and the Potency was inconclusive: 0.794 µM [inhibitor, full curve, poor fit].
For CCCCSc1nnc(CCCCCNC(=O)OC(C)(C)C)o1, the Potency was inconclusive: 39.8 µM [activator, single point].
For COc1cc2c(cc1OC)n(CC(=O)c1cccc(Cl)c1)c(=O)n1nc(CCn3nc(C)cc3C)nc21, the max response, negative = inhibition was inactive: -3.19%.
For Cc1cccc(N2CCN(C(=O)c3ccc(CS(=O)(=O)c4ccccc4C)o3)CC2C)c1 (configuration not stated), the Potency was inconclusive: 25.1 µM [activator, single point].
